Measurements published in the supplement of paper PMC4604168 (melanoma cell lines).
Some of the results follow. Repeats are few or missing, and single values can be far off.

Legend:
Assay in all cases: cell count relative to DMSO control; melanoma cells; higher = more viable cells
Details in all cases: library dose: standard library concentration; 72 h
[1] = tested on: A101D
[2] = tested on: A2058
[3] = tested on: A375
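Further: cells treated in 1,536-well plates, then fixed and DAPI-stained, with nuclei counted from automated high-throughput microscope images.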

CC1(C)CCC(c2ccc(Cl)cc2)=C(CN2CCN(c3ccc(C(=O)NS(=O)(=O)c4ccc(N[C@H](CCN5CCOCC5)CSc5ccccc5)c(S(=O)(=O)C(F)(F)F)c4)cc3)CC2)C1 + Cn1sc(=O)n(Cc2ccccc2)c1=O [TDZD-8] (first compound 2 µM, partner dose 2 µM)
cell count [1]: 58.8% | cell count [2]: 77.7% | cell count [3]: 63.2%

Cc1ccc(Nc2nccc(N(C)c3ccc4c(C)n(C)nc4c3)n2)cc1S(N)(=O)=O [Pazopanib] + Cn1c(=O)n(-c2ccc(C(C)(C)C#N)cc2)c2c3cc(-c4cnc5ccccc5c4)ccc3ncc21 [NVP-BEZ235] (first compound 2 µM, partner dose 0.02 µM)
cell count [1]: 64.5% | cell count [2]: 56.5% | cell count [3]: 99.2%

O=C(/C=C/c1cccnc1)NCCCCC1CCN(C(=O)c2ccccc2)CC1 + NC1(c2ccc(-c3nc4ccn5c(=O)[nH]nc5c4cc3-c3ccccc3)cc2)CCC1 [MK2206] (first compound 0.05 µM, partner dose 2 µM)
cell count [1]: 77.9% | cell count [2]: 72.1% | cell count [3]: 118%

O=C(/C=C/c1cccnc1)NCCCCC1CCN(C(=O)c2ccccc2)CC1 + O=C(O)[C@@H]1[O][Sb](=[O])([O][Sb]2(=[O])[O][C@H]([C@H](O)CO)[C@H](O)[C@H](C(=O)O)[O]2)[O][C@H]([C@H](O)CO)[C@@H]1O [stibogluconate] (first compound 0.05 µM, partner dose 10 µM)
cell count [1]: 81.2% | cell count [2]: 139% | cell count [3]: 131%
